Results reported in PubChem BioAssay AID652104 (National Center for Advancing Translational Sciences (NCATS), 2013).
The whole screen tested about 410,000 compounds, of which about 7,200 (1.8%) were called active. The inconclusive results got no clear call from the source; some entries with a clear call stand among them for comparison. Calls follow the shape of the dose curve; as a rule, active = well fitted activation curve with a large enough effect; inconclusive = small, poorly fitted or top-dose-only effect, or another doubt; inactive = no such curve, though single readings can be large or run the other way. No potency is given beside an inconclusive call; the fits are too rough.

assay: qHTS of TDP-43 Inhibitors; settings: TDP-43 expressing yeast growth rescue, BacTiter-Glo, 24 h; growth rescue (activation): at 46.1 µM (top of the series) unless noted; also: nearly all actives have a fitted effect of over 50% in size; as to growth rescue (activation): % of control where 0% means no effect
Outline: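 Readout is BacTiter-Glo luminescence of cell growth, so inhibitors register as activators. TDP-43-expressing yeast at OD600=0.02 in galactose medium, after raffinose pregrowth to mid-log, were incubated with compound for 24 hr at 30 deg C.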
Potency is read from the fitted curve at half-maximal effect; tags tell the direction and shape of the fitted curve.

SMILES	growth rescue (activation)	Potency
O=c1[nH]c2cc3c(cc2cc1CN(Cc1ccco1)C(=S)NCC1CCCO1)OCCO3 (centres undefined)	inactive: 8.64%	
Clc1ccc2oc(-c3cccnc3)nc2c1		inconclusive [activator, partial curve]
S=c1[nH]ncn1NCc1ccc(Cl)cc1Cl		inconclusive [activator, partial curve]
O=C(CSCc1ccccc1F)NCc1ccc(F)cc1		inconclusive [activator, partial curve]
CCOC(=O)c1ccc(NC(=O)C2CCN(S(=O)(=O)c3ccccc3)CC2)cc1	inactive: 3.9%	
CC(C)(C)OC(=O)N1CCC(c2c(C(=O)Nc3ccc4c(c3)OCCO4)cnn2-c2ccccc2)CC1	inactive: 0%	
CC1(C(=O)Nc2ccc3c(c2)OCO3)CCN1C(=O)Cc1cccc2ccccc12 (centres undefined)		inconclusive [activator, full curve]
c1ccc2sc(-c3ccc4c(c3)OCO4)nc2c1	inactive: -3.53%	
O=C(CN1CCN(S(=O)(=O)c2ccc(Br)cc2)CC1)Nc1ccc(F)cc1		inconclusive [activator, partial curve, poor fit]
CCc1ccccc1NC(=O)CN1C(=O)c2cccnc2Oc2ccc(Cl)cc21	inactive: 18.4%	
CN(Cc1ccc(F)cc1)C(=O)c1cc(COc2ccc(F)cc2F)on1		inconclusive [activator, single point]
CCOc1ccc(Br)cc1CNCCSc1nnnn1-c1ccccc1	inactive: 9.31%	
COc1cccc(CNC(=O)COC(=O)C23CC4CC(CC(Cl)(C4)C2)C3)c1		inconclusive [activator, single point]
COc1ccccc1C(=O)OCc1cc(=O)n2ccsc2n1		active: 15.8 µM
O=C(/C=C/c1cccc(Br)c1)c1ccc2c(c1)OCO2		active: 11.2 µM
O=CN1CCN(C(=O)c2cc3cc(Cl)ccc3[nH]2)CC1		inconclusive [activator, partial curve]
CCCS(=O)(=O)NC(=O)C1(C)CCN(C(=O)c2ccc(F)c(C)c2)C1 (centres undefined)	inactive: 9.97%	
COc1ccc(CNc2cc(-c3ccc(OC)cc3)nc3nncn23)cc1		active: 14.1 µM
Cc1cccc(-n2ncc(C(=O)NCc3ccccn3)c2C2CCN(C(=O)OC(C)(C)C)CC2)c1		inconclusive [activator, single point]
COc1cc(C(=S)NCc2ccccc2)cc(Br)c1O		inconclusive [activator, single point]
CCOC(=O)/C=C1\SCC(=O)N1CC(=O)NCCc1ccc(F)cc1	inactive: -7.55%	
COCC(=O)Nc1nc2ccc(C)cc2s1		inconclusive [activator, single point]
COc1ccc(NC(=O)CC2C(=O)N(c3ccc(C)cc3)C(=O)N2Cc2cccnc2)cc1 (centres undefined)	inactive: 0.717%	
COc1ccc(CNC(=O)CSc2ccc(Br)cc2)cc1OC		inconclusive [activator, partial curve]
O=C(NC(=S)Nc1cccc([N+](=O)[O-])c1)C1CCCC1		active: 12.6 µM

SMILES	growth rescue (activation)	Potency
COC(=O)N1C(=O)[C@](CC(C)C)(c2ccccc2)N1C(=O)OC		inconclusive [activator, partial curve, poor fit]
Cc1cccc(C(=O)O/N=C(\c2ccccc2)c2cccnc2)c1		active: 12.6 µM
O=C(NC(=S)NCCOCc1ccc(Cl)cc1)c1cccnc1		inconclusive [activator, single point]
CC1(C(=O)Nc2cccc3cccnc23)CCN1C(=O)Cc1ccc(Cl)cc1Cl (centres undefined)		active: 20 µM
O=C(Nc1cccc2cccnc12)c1ccccc1Cl	inactive: 4.87%	
O=C(O)c1ccc(/C=N/Nc2ccc(C(F)(F)F)cn2)cc1		active: 8.91 µM
CCOC(=O)C1CC(c2ccccc2)=NN1c1ccccc1 (centres undefined)		inconclusive [activator, partial curve]
COc1ccc(S(=O)(=O)N2CCN=C2SCc2cccc(F)c2)cc1		inconclusive [activator, single point]
Cn1c(=O)c2sccc2n2c(CCC(=O)NCc3ccccc3Cl)nnc12	inactive: -16.2%	
COc1cccc(CNC(=O)CN2C(=O)COc3ccc(S(=O)(=O)Nc4ccccc4)cc32)c1	inactive: -0.698%	
COc1ccc(-c2n[nH]c(=S)n2-c2ccc(Br)cc2)cc1OC		inconclusive [activator, partial curve]
CC1C(c2ccc3c(c2)OCO3)c2cc3c(cc2OC1N1CCOCC1)OCO3 (centres undefined)		inconclusive [activator, single point]
Cc1cccc(N2CCN(CCCNC(=O)c3nnc(Cc4c(F)cccc4Cl)o3)CC2C)c1 (centres undefined)	inactive: 12.3%	
O=C(Cc1ccc(Cl)cc1)NCC(c1cccs1)S(=O)(=O)c1ccc(F)cc1 (centres undefined)		active: 35.5 µM
O=C(c1ccco1)N1CCN(c2nc3c(Cl)cccc3s2)CC1		inconclusive [activator, partial curve]
O=C(Cn1c(=O)n(-c2ccc(Cl)cc2)c(=O)c2oc3ccccc3c21)Nc1ccccc1	inactive: 8.45%	
Fc1cc(Br)ccc1NC(=S)Nc1ccccc1		inconclusive [activator, single point]
Cc1cc(C)n(CCc2nc(-c3ccc(C)o3)cs2)n1		inconclusive [activator, single point]
COc1ccc(C2=CC(c3cccc(C)c3)n3nnnc3N2)cc1 (centres undefined)		inconclusive [activator, partial curve, poor fit]
CC(C)=CCC/C(C)=C/COc1ccc2ccc(=O)oc2c1		inconclusive [activator, partial curve]
CCOC(=O)N1CCC(NCCNC(=O)c2ccc(F)c(F)c2)CC1		inconclusive [activator, full curve]
O=S(=O)(Nc1ccc(F)cc1Cl)c1ccc(-c2cnc(C3CC3)o2)cc1		active: 35.5 µM
Cc1csc(NC(=O)C(C)Oc2ccc(Br)cc2)n1 (centres undefined)		active: 35.5 µM
Cc1ccccc1C(=O)N1CCC(C(=O)Nc2nc3ccc(F)cc3s2)CC1	inconclusive: 97.3% [activator]	
